This is an account of results in PubChem BioAssay (NCI).

SMILES strings stand for the structures. Several values for one entry are separate records, joined by “and”; a condition that tells them apart may be missing. Equal entries are not always repeated.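 These data come from cells grown in 96-well plates and exposed to compound for 48 hours at five concentrations. The concentration for 50% growth inhibition is given as GI50. TGI denotes the concentration required for complete inhibition of growth.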 Peptide text beside a SMILES is read from it. * marks the point of attachment. Boc = CC(C)(C)OC(=O)*; Bn = c1ccc(C*)cc1

For the assay, the system named is NCI-H322M lung. The assay can be described thus: NCI-60 cell line screen, 48 h.
Regarding `Clc1ccc(N/N=C(\c2ccccc2)c2ccccn2)nc1`, the GI50 was 0.083 µM; the TGI is > 100 µM and 39 µM. `CCN(CC)c1ccc2cc(-c3csc(C)n3)c(=O)oc2c1` gave a TGI of more than 100 µM. The compound `NC1=NCC(c2ccccn2)C1c1ccc(F)cc1` (stereo unspecified) returned a TGI of more than 100 µM.

The compound `N=C(N)SCCN1CCCCC1` yielded a TGI of more than 100 µM.

For the compound `O=C1OC(C2Cc3ccc4c(c3C2=O)CCCC4)c2ccccc21` (stereo unspecified), the TGI is more than 100 µM. Still for that read-out and setting: the result for `Cc1ncc([N+](=O)[O-])n1CCNC(=O)Cn1ccnc1[N+](=O)[O-]` reads more than 100 µM; that for `CNC(=O)/C(=C/c1ccc(OC)cc1)c1cc(OC)c(OC)c(OC)c1`, more than 55.1 µM.

As to `CC(=O)c1c2c(cc3c1CC1(C3)Cc3cc4c(c(C(C)=O)c3C1)CCCC4)CCCC2`, the TGI is more than 100 µM. For `NC(=S)N/N=C/c1ccc(OC(=O)COc2ccccc2)cn1`, the GI50 was 4.86 µM and the TGI was more than 100 µM. `O=S(=O)([O-])[O-].[Fe+2].[OH2+]c1c(Cl)cc(Cl)cc1/C=N/Nc1ccccn1` had a TGI of 4.27 µM.

In turn, `CC(=O)OCC1OC(n2c(=S)n(-c3ccccc3)c(=O)c3cc(Br)ccc32)C(OC(C)=O)C(OC(C)=O)C1OC(C)=O` (stereo unspecified) displayed a TGI of more than 100 µM. Regarding `COc1ccc(/C(=C\c2cc(OC)c(OC)c(OC)c2)C(=O)O)cc1`, the TGI is more than 100 µM. `O=C(Nc1ccccc1[N+](=O)[O-])C(=O)C(C(=O)c1ccccc1-c1ccccc1)C1OC(=O)c2ccccc21` (stereo unspecified) showed a TGI of 31 µM.

Compound `CN(C(=O)c1cc2c(s1)sc1c(=O)n(C)c3ccccc3c12)c1ccccc1` showed a TGI of more than 100 µM. As for `Cc1ccc(S(=O)(=O)NNC(C[N+](=O)[O-])c2ccccc2)cc1` (stereo unspecified), the TGI came to 69.9 µM. `CC(=O)c1c(C)cc2cccc(OC3OC(CO)C(O)C(O)C3O)c2c1O` (stereo unspecified) (tested in a mixture with another compound) gave a TGI of more than 100 µM. Regarding `CCOC(=O)N1CCc2cc(OC)c(OC)cc2/C1=C/c1ccc(OC)c(OC)c1`, the TGI is more than 100 µM. Still for that read-out and setting: the result for `O=C(c1ccc(Cl)c(Cl)c1)N(C(=O)N1CCN(c2ccccc2)CC1)S(=O)(=O)c1ccccc1` reads more than 100 µM. For the compound `N#CCCN(CCCN(C(=O)Nc1ccc(NC(=O)N(CCCN(CCC#N)C(N)=O)c2ccccc2)cc1)c1ccccc1)C(N)=O`, the TGI is more than 100 µM. On to `CC(=O)Oc1ccccc1C(=O)NCCC[Se]C#N`, for which the GI50 was 1.8 µM and the TGI amounted to 4.53 µM. For `O=[N+]([O-])c1cc2ccc1OCc1cccc(n1)COc1ccc(cc1[N+](=O)[O-])C=NCCCCCCCCN=C2`, the TGI was more than 100 µM.

The compound `COc1cc(/C=C2\NC(=S)C3Cc4c(OC)c(C)c(OC)c(OC)c4C2N3C)c(OC)c(C)c1OC` (stereo unspecified) showed a TGI of more than 100 µM. Regarding `CCP(C)(C)=O`, the TGI is more than 100 µM. On to `CCOC(=O)C(C)c1nc2cc(C(F)(F)F)ccc2[nH]c1=O` (stereo unspecified), for which the TGI was more than 100 µM. In the case of `C=CCN(N=O)C(=O)N(CCCCC(NC(C)=O)C(=O)NCc1ccccc1)Cc1ccccc1` (stereo unspecified), the TGI is more than 100 µM.

In the case of `CC(C)(C)c1cc(-c2c3nc(c(-c4cc(C(C)(C)C)cc(C(C)(C)C)c4)c4ccc([nH]4)c(-c4cc(C(C)(C)C)cc(C(C)(C)C)c4)c4nc(c(-c5cc(C(C)(C)C)cc(C(C)(C)C)c5)c5ccc2[nH]5)C=C4)C=C3)cc(C(C)(C)C)c1`, the TGI is more than 100 µM. With `CC1(C)CC2C(/C1=N/O)C1(C)CCCC2(C)C1O` (stereo unspecified), the TGI was more than 100 µM. On to `O=[N+]([O-])c1cc(Cl)ccc1S(=O)(=O)c1ccc(Cl)cc1[N+](=O)[O-]`, for which the TGI was determined as 29.9 µM. With `C=C(C[C@@H](O)[C@H](C)NC(=O)OCc1ccccc1)C(=O)OC(C)(C)C`, the TGI was more than 100 µM. `C/C(=C1/N=C(c2ccccc2)OC1=O)c1ccccc1` had a TGI of more than 100 µM. Take `CC(=O)C(N=NC1CCC(S(=O)(=O)NB2N=CS2)CC1)C(=O)Nc1ccccc1C` (stereo unspecified): the TGI turned out to be 43.4 µM.

The compound `O=C1Nc2ccccc2/C1=N/N1C(=O)/C(=C/c2ccccc2S)N=C1c1ccccc1` gave a TGI of more than 100 µM. For the compound `Cc1cccc(C)c1NC(=O)CCCC(=O)C(C#N)c1ccc(Cl)cc1` (stereo unspecified), the TGI was more than 100 µM. Compound `COc1cc(OC)c2nc(C)c3c(c2c1)OCC3` returned a TGI of more than 100 µM. `CC(C)c1ccc(/C=N/N=C(N)N)cc1`: the GI50 was 13.1 µM and the TGI was determined as 28.2 µM. `CC(CC(C)[C@H]1CCC2[C@H]3C(CC(=O)[C@@]21C)[C@@]1(C)CCC(O)C[C@H]1C[C@@H]3O)C(=O)O` (stereo partly specified) registered a TGI of more than 100 µM. In turn, `COc1ccc(C(=O)C/C(=N/NC(N)=S)C(=O)Nc2ccccc2)cc1` displayed a TGI of more than 100 µM.

As to `Oc1ccccc1-c1n[nH]c(-c2ccccc2O)n1`, the TGI was more than 100 µM. Regarding `COc1ccc2oc(=O)c(-c3csc(-c4ccccc4)n3)cc2c1`, the TGI is more than 100 µM. On to `O=C(/C=C/c1ccccc1Br)c1ccccc1`, for which the TGI came out at 28 µM. `Nc1ccc(S(=O)(=O)NCCS(=O)(=O)O)cc1` registered a TGI of more than 100 µM. With `Cc1cccc2cc3cccc(C(=O)NCCN(C)C)c3nc12`, the TGI is 3.65 µM.

The compound `COc1ccc(OC)c([N+](=O)[O-])c1-c1nc2sc(C)c(C)n2c1/C=N/N=C(N)N` yielded a TGI of more than 100 µM. With `CN(C)CCCN1c2ccc(O)cc2Sc2ccc(Cl)cc21`, the TGI turned out to be 27.9 µM. On to `N=C1N=C(N)S/C1=C\c1ccc2ncccc2c1`, for which the GI50 is more than 25 µM and the TGI was more than 25 µM.

As to `Cc1ccc(N(/C=C/C(=O)C(F)(F)F)CC(=O)c2ccc(Cl)c(Cl)c2)cc1`, the GI50 was 2.28 µM and the TGI was 18.9 µM. Compound `CCOC(=O)C1=C(c2ccccc2)NC(c2ccccc2)=C(C(=O)OCC)c2c1c(=O)cc[nH]c2=O` displayed a TGI of more than 100 µM. As to `CNC(C)[C@H]1CCC2C3CCC4C[C@@H](N(C)C(=O)c5ccccc5)CC[C@]4(C)C3CC[C@@]21C` (stereo partly specified), the GI50 was 1.84 µM and the TGI was found to be 7.91 µM.

Take `Cc1ccc(NC(=O)N2CCCCC2)cc1[N+](=O)[O-]`: the GI50 was more than 100 µM and the TGI is more than 100 µM. The compound `O=C(/N=C1/OC(CN2CCOCC2)CN1C(=O)Nc1ccccc1)Nc1ccccc1` (stereo unspecified) came in with a TGI of more than 100 µM. For the compound `Oc1cc2c(cc1C(c1ccc3c(c1)OCO3)N1CCN(C(c3ccc4c(c3)OCO4)c3cc4c(cc3O)OCO4)CC1)OCO2` (stereo unspecified), the TGI came out at 57 µM. As for `CC(=O)c1sc2n(C)c(=O)c3ccccc3[n+]2c1C`, the TGI is more than 100 µM. With `CC(=O)N1N=C(c2ccc(Nc3nc(Nc4ccc(F)cc4)nc(Nc4ccc(Cl)cc4)n3)cc2)CC1c1ccc(N(C)C)cc1` (stereo unspecified), the GI50 is 16.2 µM and the TGI stood at 58.5 µM. In turn, `COC(=O)C1=C(C(=O)OC)C(OO)(c2ccccc2)OC1=O` (stereo unspecified) had a TGI of more than 100 µM. The compound `CC1CN=C(NS(=O)(=O)c2cc(C(=O)Nc3ccccc3)c(Cl)cc2S)NN1` (stereo unspecified) gave a TGI of more than 100 µM. Turning to `CC(=O)[O][Hg][CH2]C1(C)COC(C)([CH2][Hg][O]C(C)=O)CO1` (stereo unspecified), the GI50 is more than 43.4 µM and the TGI is more than 58.5 µM. `COC(=O)C(CC(C)C)NC(=O)CNC(=O)C(Cc1ccc(OCc2ccccc2)cc1)NC(=O)C(COCc1ccccc1)NC(=O)OC(C)(C)C` (stereo unspecified) (Boc-S(Bn)Y(Bn)GL-OMe; configuration not given here): the TGI was more than 100 µM. `COC(=O)/C=C/C(=O)Nc1cc(Cl)c(Cl)cc1CC(=O)N(C)[C@H]1CCCC[C@@H]1N1CCCC1` came in with a TGI of 30.7 µM. Compound `CC1NCCc2c1[nH]c1cc(O)ccc21` (stereo unspecified) registered a TGI of more than 100 µM. As for `O=C1O/C(=C(/Cl)c2c3ccccc3cc3ccccc23)c2ccccc21`, the TGI is more than 100 µM. Compound `Cc1ccccc1C1CC(=O)CC(c2ccccc2C)C12C(=O)NC(=S)NC2=O` (stereo unspecified) displayed a TGI of more than 100 µM.
